The text below walks through data of ChEMBL document CHEMBL5606458, “ASAP - ZIKV NS2B-NS3 protease fluorescence single point” (2024).

The experiment has as its target Nonstructural protein 3 (Zika virus) (UniProt A0A024AXB9).
The mark [1] stands for this setting: PRVABC59, Concentration 50.0 uM, Number of replicates 1.0.
[2] abbreviates: PRVABC59, Concentration 15.0 uM, Number of replicates 1.0.
The mark [3] stands for this setting: PRVABC59, Concentration 10.0 uM, Number of replicates 1.0.

Screen size: about 2,700 compounds; about 160 (5.9%) showed an effect of 50% or more. This is one part of the list.

UniProt A0A024AXB9, sequence (A0A024AXB9 as listed by the source): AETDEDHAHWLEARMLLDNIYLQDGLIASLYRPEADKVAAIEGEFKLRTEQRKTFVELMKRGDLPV

Turning to `O=Cc1ccc(N2CCC(C(=O)Nc3ccc(OCc4ccccc4)cc3)CC2)cc1`, the inhibition (in general, the change of the read-out against control, counted positive when it falls) under setting [1] is 6.28%. In the case of `O=C(Nc1ccc(Br)cc1O)c1cc(Cl)ccc1NS(=O)(=O)c1ccc(Oc2ccccc2Cl)cc1`, the inhibition under setting [2] is 58.9%. As for `CCN(CC)CCN(CCN(CC)CC)C(=O)C1CCN(c2ccc(C=O)cc2)CC1`, the inhibition under setting [1] turned out to be 21.2%.

Consider `Cc1ncoc1CN1CCC(c2c[nH]c3cccnc23)CC1`, for which the inhibition is -1.29% (PRVABC59, Concentration 49.5 uM, Number of replicates 2.0, Standard deviation 1.060972142752499 %); -2.37% (PRVABC59, Concentration 99.01 uM, Number of replicates 2.0, Standard deviation 0.12325997575665598 %); -2.66% (PRVABC59, Concentration 198.0 uM, Number of replicates 2.0, Standard deviation 0.5351668582250209 %). Take `Cc1cccc(C)c1OC[C@H](C)NC(=O)c1cc(Cl)ccc1NS(=O)(=O)c1ccc(Oc2ccccc2Cl)cc1`: under setting [2], the inhibition came out at 17.7%.

For `O=Cc1ccc(N2CCC(C(=O)NC(c3ccccc3)(c3ccccc3)c3ccccc3)CC2)cc1`, the inhibition under setting [3] was determined as 43.6%.

With `CC(C)Cn1cccc(C(=O)N[C@H]2CCCNC2)c1=O`, the inhibition (PRVABC59, Concentration 49.5 uM, Number of replicates 2.0, Standard deviation 1.6928260604634553 %) was -1.16%; the inhibition (PRVABC59, Concentration 99.01 uM, Number of replicates 2.0, Standard deviation 0.8464130526222409 %) came to 0.121%; the inhibition (PRVABC59, Concentration 198.0 uM, Number of replicates 2.0, Standard deviation 0.8007638220735158 %) was -3.94%. Turning to `O=C(c1cc(Cl)ccc1NS(=O)(=O)c1ccc(Oc2ccccc2Cl)cc1)N1CCC(Cc2ccc(Br)cc2)CC1`, under setting [2], the inhibition worked out at 2.65%. Turning to `O=C(c1cc(Cl)ccc1NS(=O)(=O)c1ccc(Oc2ccccc2Cl)cc1)N1CCN(c2ncc(C(F)(F)F)cc2Cl)CC1`, the inhibition under setting [2] stood at 13.7%. On to `CCn1ncc(N)c1-c1nn(C)cc1NC(=O)c1ccccc1C(F)(F)F`, for which the inhibition is, setting by setting: (PRVABC59, Concentration 49.5 uM, Number of replicates 2.0, Standard deviation 2.6836674093613992 %) -1.07%; (PRVABC59, Concentration 99.01 uM, Number of replicates 2.0, Standard deviation 2.426452526451054 %) -2.49%; (PRVABC59, Concentration 198.0 uM, Number of replicates 2.0, Standard deviation 2.919297584597012 %) -5.52%.

For `Cc1cc(CO)c2cccc(C[C@H](NC(=O)[C@@H](N)c3ccsc3)C(=O)O)c2n1`, the inhibition was -1.02% (PRVABC59, Concentration 49.95 uM, Number of replicates 2.0, Standard deviation 2.4839816681161206 %) and 5.18% (PRVABC59, Concentration 99.9 uM, Number of replicates 2.0, Standard deviation 1.7714052375172231 %). For the compound `CCCCN(CCCC)CCCNC(=O)C1CCN(c2ccc(C=O)cc2)CC1`, the inhibition under setting [1] came out at 27.6%. For `CC(C)[C@H](CNC(=O)c1cc(Cl)ccc1NS(=O)(=O)c1ccc(Oc2ccccc2Cl)cc1)N1CCCC1`, the inhibition under setting [2] came to 25.1%.

For the compound `O=C(c1cc(Cl)ccc1NS(=O)(=O)c1ccc(Oc2ccccc2Cl)cc1)N1CCN(c2cccnc2)CC1`, the inhibition under setting [2] came to 3.92%. With `Cc1cc(CO)c2cccc(NC(=O)NCc3ccc(N)cc3)c2n1`, the inhibition (PRVABC59, Concentration 49.95 uM, Number of replicates 2.0, Standard deviation 1.8009998273109058 %) is -3.2% and the inhibition (PRVABC59, Concentration 99.9 uM, Number of replicates 2.0, Standard deviation 1.0240979492840148 %) worked out at 3.2%.

For `CN(C)CC(=O)NC1(C)CCN(C(=O)c2ccc3[nH]ncc3c2)CC1`, the inhibition is, setting by setting: (PRVABC59, Concentration 49.5 uM, Number of replicates 2.0, Standard deviation 0.21263675129625192 %) -2.01%; (PRVABC59, Concentration 99.01 uM, Number of replicates 2.0, Standard deviation 1.0055534202329184 %) -2.56%; (PRVABC59, Concentration 198.0 uM, Number of replicates 2.0, Standard deviation 0.061605036944009546 %) -2.43%. In the case of `CC(C)CC(=O)N1CCC(NC(=O)C2CCN(c3ccc(C=O)cc3)CC2)CC1`, the inhibition under setting [1] amounted to 22.7%.

With `CNC(=O)c1cc(Cl)ccc1NS(=O)(=O)c1cccnc1`, the inhibition (PRVABC59, Concentration 49.5 uM, Number of replicates 2.0, Standard deviation 4.975502143025385 %) was found to be 4.59%; the inhibition (PRVABC59, Concentration 99.01 uM, Number of replicates 2.0, Standard deviation 1.8642280236847668 %) was 0.245%; the inhibition (PRVABC59, Concentration 198.0 uM, Number of replicates 2.0, Standard deviation 2.8703194905857754 %) was found to be 2.56%. Regarding `COc1ccc(CNC(=O)C2CCN(c3ccc(C=O)cc3)CC2)cc1F`, the inhibition under setting [3] was 25.3%. For the compound `C[C@H](NC(=O)c1cc(Cl)ccc1NS(=O)(=O)c1ccc(Oc2ccccc2Cl)cc1)c1c(F)cccc1F`, the inhibition under setting [2] was found to be 38.6%. With `Cc1cc(Cl)c2c(N)ccc(C)c2n1`, the inhibition turned out to be 80.8% (PRVABC59, Concentration 49.95 uM, Number of replicates 2.0, Standard deviation 1.4741281735170297 %) and 83.6% (PRVABC59, Concentration 99.9 uM, Number of replicates 2.0, Standard deviation 0.2024559271573544 %). As to `Cc1cc(CO)c2cccc(Cc3cccc(C(=O)Nc4cc(C)[nH]n4)c3)c2n1`, the inhibition reads like this: (PRVABC59, Concentration 49.95 uM, Number of replicates 2.0, Standard deviation 3.093641395210206 %) 6.52%; (PRVABC59, Concentration 99.9 uM, Number of replicates 2.0, Standard deviation 2.134087804085351 %) 9.51%. On to `O=Cc1ccc(N2CCC(C(=O)Nc3ccc(F)nc3Br)CC2)cc1`, for which, under setting [1], the inhibition amounted to 20.4%. As for `Cc1ccc(C)n1CCN1CCN(C(=O)c2cc(Cl)ccc2NS(=O)(=O)c2ccc(Oc3ccccc3Cl)cc2)CC1`, under setting [2], the inhibition turned out to be 16.3%. Regarding `Cc1cnccc1NC(=O)c1ccccc1-c1nc(C(C)C)no1`, the inhibition is -0.098% (PRVABC59, Concentration 49.5 uM, Number of replicates 2.0, Standard deviation 0.2610834999883118 %); -0.148% (PRVABC59, Concentration 99.01 uM, Number of replicates 2.0, Standard deviation 1.3020487023400833 %); 0.672% (PRVABC59, Concentration 198.0 uM, Number of replicates 2.0, Standard deviation 1.8545350914642316 %). For `CCN(Cc1ccc(F)cc1)C(=O)C1CCN(c2ccc(C=O)cc2)CC1`, the inhibition under setting [3] was 24%. In the case of `CCN(C(=O)c1cc(Cl)ccc1NS(=O)(=O)c1ccc(Oc2ccccc2Cl)cc1)[C@H]1CCOC(C)(C)C1`, the inhibition under setting [2] was determined as 16.6%. As for `CCC(=O)Nc1cncc(C(=O)Nc2ccncc2C)c1`, the inhibition was -2.29% (PRVABC59, Concentration 49.5 uM, Number of replicates 2.0, Standard deviation 0.43924745880368476 %); -0.368% (PRVABC59, Concentration 99.01 uM, Number of replicates 2.0, Standard deviation 0.3166668164880395 %); 2.6% (PRVABC59, Concentration 198.0 uM, Number of replicates 2.0, Standard deviation 1.30548455557754 %).

For `CN(Cc1cccc2ccccc12)C(=O)c1cc(Cl)ccc1NS(=O)(=O)c1ccc(Oc2ccccc2Cl)cc1`, the inhibition under setting [2] worked out at 19.1%. Consider `N#Cc1cc(F)c(NC(=O)C2CCN(c3ccc(C=O)cc3)CC2)cc1F`, for which the inhibition under setting [1] turned out to be 24.4%. Consider `COc1cccc(F)c1CNC(=O)C1CCN(c2ccc(C=O)cc2)CC1`, for which the inhibition under setting [3] came to 17.2%. Turning to `O=C(Nc1cnc(Cl)c(Br)c1)c1cc(Cl)ccc1NS(=O)(=O)c1ccc(Oc2ccccc2Cl)cc1`, the inhibition under setting [2] is 23%. As to `Cc1cc(CO)c2cccc(Cc3cccc(C(=O)NCc4c(C)noc4C)c3)c2n1`, the inhibition (PRVABC59, Concentration 49.95 uM, Number of replicates 2.0, Standard deviation 0.6344586798768046 %) was -2.24% and the inhibition (PRVABC59, Concentration 99.9 uM, Number of replicates 2.0, Standard deviation 0.2674164432987103 %) was found to be 1.65%. As to `CC(=O)N[C@@H](CCCN)C(=O)Nc1cccc2c(CO)cc(C)nc12`, the inhibition is, setting by setting: (PRVABC59, Concentration 49.95 uM, Number of replicates 2.0, Standard deviation 2.340889239911572 %) 9.01%; (PRVABC59, Concentration 99.9 uM, Number of replicates 2.0, Standard deviation 2.049858170273299 %) 41.2%. For the compound `CCCC[C@H](NC(C)=O)C(=O)N[C@H](C(=O)Nc1cccc(C(N)=O)c1)c1ccc(OCc2ccccc2)cc1`, the inhibition came to 0.392% (PRVABC59, Concentration 49.5 uM, Number of replicates 2.0, Standard deviation 1.5133642763760644 %); 3.8% (PRVABC59, Concentration 99.01 uM, Number of replicates 2.0, Standard deviation 2.3397962878359877 %); 7.97% (PRVABC59, Concentration 198.0 uM, Number of replicates 2.0, Standard deviation 2.8724328178638086 %). Regarding `CS(=O)(=O)N1CCC(NC(=O)c2cc(Cl)ccc2NS(=O)(=O)c2ccc(Oc3ccccc3Cl)cc2)CC1`, the inhibition under setting [2] worked out at 4.19%. Regarding `O=C(Nc1ccn([C@H]2C[C@H](O)[C@@H](CO)O2)c(=O)n1)c1cc(Cl)ccc1NS(=O)(=O)c1ccc(Oc2ccccc2Cl)cc1`, the inhibition under setting [2] amounted to 24.9%. As for `Cc1cnccc1NC(=O)c1cc(-n2ccnc2)ccn1`, the inhibition by setting is: (PRVABC59, Concentration 49.5 uM, Number of replicates 2.0, Standard deviation 2.257669729081069 %) 1.73%; (PRVABC59, Concentration 99.01 uM, Number of replicates 2.0, Standard deviation 0.9258765732907107 %) 4.55%; (PRVABC59, Concentration 198.0 uM, Number of replicates 2.0, Standard deviation 0.8678885788859061 %) 7.6%. `COC(=O)c1csc(Cn2cc(C3CCNCC3)c(C)n2)n1`: the inhibition is -1.63% (PRVABC59, Concentration 49.5 uM, Number of replicates 2.0, Standard deviation 2.2121683444085645 %); -0.419% (PRVABC59, Concentration 99.01 uM, Number of replicates 2.0, Standard deviation 1.3442857872536393 %); 0.211% (PRVABC59, Concentration 198.0 uM, Number of replicates 2.0, Standard deviation 0.5654699997624443 %). Take `O=Cc1ccc(N2CCC(C(=O)NCCCSc3ccccc3)CC2)cc1`: the inhibition under setting [1] came out at 13.1%. For the compound `O=Cc1ccc(N2CCC(C(=O)Nc3cc(Cl)cc(Cl)c3O)CC2)cc1`, the inhibition under setting [1] turned out to be 92.4%. Turning to `Cc1nn(Cc2nnc(-c3ccccc3)o2)cc1C1CCNCC1`, the inhibition by setting is: (PRVABC59, Concentration 99.01 uM, Number of replicates 2.0, Standard deviation 1.440037610805296 %) -4.21%; (PRVABC59, Concentration 198.0 uM, Number of replicates 2.0, Standard deviation 2.052778441112922 %) -3.03%.
